Measurements from PMC12136788.
The other results are listed elsewhere or left out.

T1: UNK ZnF1-3 (human, UniProt Q9C0B0 31-174)
T1 sequence: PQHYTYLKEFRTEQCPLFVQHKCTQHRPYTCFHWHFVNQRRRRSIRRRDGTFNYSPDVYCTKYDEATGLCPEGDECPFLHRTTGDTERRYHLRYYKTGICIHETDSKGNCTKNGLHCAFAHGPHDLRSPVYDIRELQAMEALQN

B1: chr1:58468927:58468928:-_ENSMUSG00000026034_ENSMUST00000148330|mus_mus|mus_mus_mus_hu_False|58_98 (ssRNA)
RNA: GGGAGUUCUACAGUCCGACGAUCAAUUACUGAAAAAUGAAAGAUGUACCUUAGCUAUGUACUUAAUGAACCAAAUUAUCUAAAAAAAAUAAACAUGGCAAUAUAAAAAUGUUAAGAAUUUACAAAGCUGUACAAAAUAACUUACAACAGAGGAUUGAGCAUCA
B2: 47181375_47181840_654_ncRNA_ENSMUSG00000021377_ENSMUST00000138401|mouse|control|control (ssRNA)
RNA: GGGAGUUCUACAGUCCGACGAUCAUUCUCUUUGCUGGUAUAAAAUCAGAUCUUCAAAUCUGAGAACAAGCCAUCUGUCCGCUUCUCAAGAAAUUAGCUCUUUUACAGUUGUUUUAAUGAAAUCUUUCCUCUCAGUCAAAUCAUCAACAGAGGAUUGAGCAUCA
B3: chr8:95500983:95500984:-_ENSG00000164944_ENST00000437199|hu_hu|hu_hu_hu_mus_True|1_108 (ssRNA)
RNA: GGGAGUUCUACAGUCCGACGAUCAGAAGGAUUUUUACGAGUAAAGGACCGUACAUGACGGCCUCUACCACUGCCUCCACUAACAAACUUUCCUCUCGAGCCUCCACUGCCGCUAUUUGUACUAGCCCAGGACGGUCCCAAGUCCAACAGAGGAUUGAGCAUCA
B4: chr18:47247233:47247234:+_ENSMUSG00000042705_ENSMUST00000049388|mus_hu|FALSE|FALSE (ssRNA)
RNA: GGGAGUUCUACAGUCCGACGAUCUUGUAUAUGGCUAUUUUCUUAAUUUUAUUCAUGUAAUUACCAAAGCUCUGUAUUCUACUAAGGUACACAUCUUAUCUUGUAUCCAUGGACGCUCCUUGAUACAUUAUGGUAUCAUCCAGCCAACAGAGGAUUGAGCAUCA
B5: 88343747_88343867_74_5pUTR_ENSG00000170502_ENST00000302174|human|control|control (ssRNA)
RNA: GGGAGUUCUACAGUCCGACGAUCAGUCCACCGCUUUCCCCAGUGCAUCGAGAAAAAUCCAGACCAGCACGUGACGCCGAAGCCUCCAGCGCCAGCUGCCUGGGGAAACCGCGGCCACGAACCUCGUAACUUUCUCUCUGCGUACAACAGAGGAUUGAGCAUCA
B6: chr9:95013113:95013114:-_ENSG00000196305_ENST00000443024|hu_hu|hu_hu_hu_mus_False|18_108 (ssRNA)
RNA: GGGAGUUCUACAGUCCGACGAUCCUCAGUGAGAAAAGGCGUGUAAGGGGCCAUCAGUCUGCACAGAGAAAGCAGGACACUGAACAGUGUCUCCAGAGCCAUGACACAGUCUUCCACCCCAUUUUCACCCUUUAACCUCCUCCUCAACAGAGGAUUGAGCAUCA
B7: chrX:71549400:71549401:+_ENSMUSG00000019087_ENSMUST00000019231|mus_hu|mus_mus_mus_hu_False|1_28 (ssRNA)
RNA: GGGAGUUCUACAGUCCGACGAUCGCAGUAGGAAGAGGGAAGCUCUUCAGUCCAGUGCGCUGCAGGGUGGGAAAGCAACAACACGGACACCGUCCCACCCUCAACCCUCUCAGGUGUACAGGGUCACACAAUCUGGGAAGUGAUCAACAGAGGAUUGAGCAUCA
B8: chr5:21390796:21390797:-_ENSMUSG00000042453_ENSMUST00000160791|mus_hu|FALSE|FALSE (ssRNA)
RNA: GGGAGUUCUACAGUCCGACGAUCGGUAUUUCAAUUAAUUUUCUGCAGAAUAUAAGUAGCCCCAAAUUCAGCAGCAAAAUAUUACAACAUAACAAGUAAAUACAGUUUCAAUGUGUUGUAUUGUAGAAGAGAAUACAUAAAGGACAACAGAGGAUUGAGCAUCA
B9: chr16:94664741:94664742:+_ENSMUSG00000040785_ENSMUST00000117648|mus_hu|mus_mus_mus_hu_False|38_68 (ssRNA)
RNA: GGGAGUUCUACAGUCCGACGAUCUGGUACUGAUCUUGGUAGCUGAUAUUCAGGAGAAAGGCUGGCCAAAGGUGUGUAUAUGCUGGUGUACUGGGGCAGGCUAGGUAACACGUUUAUGUAUGCUGGCGGUGUCUGGGUGAUAUCCAACAGAGGAUUGAGCAUCA
B10: chr7:54825262:54825263:-_ENSG00000132432_ENST00000352861|hu_hu|hu_hu_hu_mus_False|18_48 (ssRNA)
RNA: GGGAGUUCUACAGUCCGACGAUCCUGCCGGCUGGGCUCCACAAACUGCAUUACCUGAUCCAUGUUUGUUGGAUGGCGGAUUGAGAGUGCCAGGGACCGUAGCUCAGGAGAGAACCGGAUGGAGGCCAACCGGAAGCUGGCAACCAACAGAGGAUUGAGCAUCA
B11: chr6:145166005:145166006:-_ENSMUSG00000030265_ENSMUST00000032399|mus_hu|FALSE|FALSE (ssRNA)
RNA: GGGAGUUCUACAGUCCGACGAUCUUAACACAGAAGUUACUAAAUAUAAAUUCAGCUUUAAGGUAACUGCUGGGUUCUAAAAAACAUUACUACACAAUUAUCAAGAAAUCAUUACUUUUUGACAAAUGGAAAUCUUCAGAUAGUCAACAGAGGAUUGAGCAUCA
B12: chr14:102036314:102036315:-_ENSMUSG00000075486_ENSMUST00000100339|mus_mus|FALSE|FALSE (ssRNA)
RNA: GGGAGUUCUACAGUCCGACGAUCCUUGAGAGAUCUGCAGCUGUCAGAGCUCACAGCCAUGCCCAGUUUCCACUGAAAAUCUAUAAGCUGGCCCGUGACCUCCGACUUGGCAUCCAGCACGGGCUCCCUGAACCCAGACUCCUCCAACAGAGGAUUGAGCAUCA
B13: chr11:34129765:34129766:+_ENSG00000135372_ENST00000257829|hu_hu|FALSE|FALSE (ssRNA)
RNA: GGGAGUUCUACAGUCCGACGAUCCCAUUCUCAAUGAGAAUCCGGAUUCGGUUAUCCACCUUUUUCCGAUGCAUGGUGAAAAAUUAUUACUGCGCCCCGAGCCCGGGGGAUCCCAGCCAGUGGAGAAGGGGAAGCACGUGGGAGCAACAGAGGAUUGAGCAUCA
B14: chr5:37680062:37680063:+_ENSMUSG00000029121_ENSMUST00000031004|mus_hu|mus_mus_mus_hu_False|48_48 (ssRNA)
RNA: GGGAGUUCUACAGUCCGACGAUCUUUGGGUGUAGCUGGUACCUCGUACACAGGACCGUCAUACAUGCCCCUGGAAACCCCUUGCAACCCGAAAACCUUAUUCCUGAUUUUGACGCGCUGGUACAGGUGCUCCGGGAACGCCUUCAACAGAGGAUUGAGCAUCA
B15: 118633977_118635998_930_CDS_ENSG00000110367_ENST00000264018|human|control|control (ssRNA)
RNA: GGGAGUUCUACAGUCCGACGAUCAUCCAGGAUUCUCCCAGGGGUAGCAAUCACCACGUGCACUGUAUCAUCAAGCCUCAUUAUGUCAUCUCGUAAAUUGGUUCCUCCUGUGGUUGCCAUCACUUUGGCCCCUCCCAUGUGUUUCAACAGAGGAUUGAGCAUCA
B16: chr1:115110812:115110813:-_ENSG00000116752_ENST00000369541|hu_hu|FALSE|FALSE (ssRNA)
RNA: GGGAGUUCUACAGUCCGACGAUCGUCUUGCCGGAUGUUUUCUUUGUUUGCCUCUCCAUGUUGCUGCUUAAUUUGAUAGAUUUCAUUUUCUAGCUGAACAAUAGUCCGUUCAAUCUCAUAAUUCUUACUGACCAGGGAUACCCACAACAGAGGAUUGAGCAUCA
B17: chr2:155483634:155483635:-_ENSMUSG00000038324_ENSMUST00000041059|perfect_dup|motif|central (ssRNA)
RNA: GGGAGUUCUACAGUCCGACGAUCGGUGACAGCCAGGAUCCUGCAGAAGUUAGCAAGCUGCUGCUGAUCGAAAUUGGAUACGGAGGAACUCAGAUUGGGAACUUCAUCUAGCCGGAUCAUUUCCUUCUUAACACCCAAAAUGUCCAACAGAGGAUUGAGCAUCA
B18: chr5:71490711:71490712:+_ENSG00000131711_ENST00000296755|hu_hu|FALSE|FALSE (ssRNA)
RNA: GGGAGUUCUACAGUCCGACGAUCCACAGGAGUGGGCACCUGGCCAGUGAGAUCCUUUUGGGUGGCCAGUGGCUGCUUCAGAAAGUCUAGAUGUUUGAGCUUUUCCAACCCUUCCAGGAUGUUGUACUGGGUGCUGUUCCCAGGCAACAGAGGAUUGAGCAUCA
B19: chr13:100193180:100193181:-_ENSMUSG00000052727_ENSMUST00000064762|mus_hu|FALSE|FALSE (ssRNA)
RNA: GGGAGUUCUACAGUCCGACGAUCAUAAUGUUCAGGUUAAAUACAUUUAAUUGUGAAAUUGGAAAAUAACUUGCAUCUUCUGUCAAAGAAAAAUCAACCAGAGGUCUGGAUUUGGCAAGAAGGCUAAAAAUCUGGUUUUCUUCCCAACAGAGGAUUGAGCAUCA
B20: 29704766_29706733_384_CDS_ENSG00000134758_ENST00000257190|human|control|control (ssRNA)
RNA: GGGAGUUCUACAGUCCGACGAUCCUGAUUUAGAUGACUAACGAAAUUUCUGGUAAUCUGGCUAGGAUCUCCCCAAGGAAGAGACACACAAAUAGGACAUGUCACAGGAACUAUCUGAAAUAGGUGAUUACUGUUACAGUGAUCCAACAGAGGAUUGAGCAUCA
B21: chrX:20249591:20249592:+_ENSMUSG00000001924_ENSMUST00000001989|mus_hu|FALSE|FALSE (ssRNA)
RNA: GGGAGUUCUACAGUCCGACGAUCCACCAGGAAAUACUUCUGCUUGCCCAGCUUCUCUUGCAGGUCUGAGCCAAACACAGCCACUUGCCCGUCAUAACGGUUCUGGCGCUGGAGGCACUUGUCCUCUGUGAGGACCUCUUUGUCCAACAGAGGAUUGAGCAUCA
B22: 117900442_117903411_957_CDS_ENSMUSG00000033295_ENSMUST00000150096|mouse|control|control (ssRNA)
RNA: GGGAGUUCUACAGUCCGACGAUCGGUCUCCACUGAGCCUCAGCCAGCAUGACAUCCUGGAUGAUGGGUUGGCCUCGGGGCUCACCAUUCUCCAACCGCACAUAGGUGACCUGGUAGCCACGAAUCUGUCCGUGCUGCUUGUUGCAACAGAGGAUUGAGCAUCA

Target: T1, UNK ZnF1-3
Assay: nsRBNS (natural sequence RNA bind-n-seq); RBNS binding buffer (assumed for nsRBNS): 25 mM Tris pH 7.5, 150 mM KCl, 3 mM MgCl2, 0.01% Triton X-100, 500 ug/ml BSA, 20 U/ml SUPERase-In, 4 C; UNK is unkempt and MSI1 is Musashi-1; names of the RNAs are library labels; protein concentration not given here; high values mean tight binding

Binder | binding signal
B1 | 1.4 enrichment R
B2 | 0.672 enrichment R
B3 | 0.89 enrichment R
B4 | 0.975 enrichment R
B5 | 0.648 enrichment R
B6 | 1.32 enrichment R
B7 | 0.725 enrichment R
B8 | 1.3 enrichment R
B9 | 1.03 enrichment R
B10 | 0.934 enrichment R
B11 | 0.787 enrichment R
B12 | 0.493 enrichment R
B13 | 1.31 enrichment R
B14 | 0.631 enrichment R
B15 | 1.02 enrichment R
B16 | 0.733 enrichment R
B17 | 1.28 enrichment R
B18 | 1.13 enrichment R
B19 | 1.3 enrichment R
B20 | 1.42 enrichment R
B21 | 0.823 enrichment R
B22 | 0.438 enrichment R
